Binding signal data for 42 sequences are collected here from paper PMC7819943, “Rice protein-binding microarrays: a tool to detect cis-acting elements near promoter regions in rice”.

The list shows a part of the results.

This assay deals with T1, OsWOX13 (Oryza sativa, UniProt Q5QMM3 1-267).
T1 sequence: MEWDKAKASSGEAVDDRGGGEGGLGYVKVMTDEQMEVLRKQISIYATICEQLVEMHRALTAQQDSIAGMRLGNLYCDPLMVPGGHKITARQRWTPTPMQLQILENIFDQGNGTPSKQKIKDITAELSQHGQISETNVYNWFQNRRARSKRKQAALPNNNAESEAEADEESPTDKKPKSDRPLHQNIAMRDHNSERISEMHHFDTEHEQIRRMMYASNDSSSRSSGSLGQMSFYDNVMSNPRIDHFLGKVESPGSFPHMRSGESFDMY
As to the kind of experiment: protein-binding microarray (RPBM); PBS, 2% BSA, 51.3 ng/ul salmon testes DNA, 50 uM zinc acetate, 200 nM TF, 25 C, 1 h; high values mean tight binding. To be noted: protein: recombinant; tags: N-terminal polyhistidine and DsRed monomer fusion (pET32a); label: CyDye5-dUTP incorporated in the synthesized complementary strand; 3' TTTTT single-stranded linker to array surface; dsDNA, one strand shown. A digest of the protocol:
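The binding signal is fluorescence intensity per feature, in arbitrary units, read on an Axon 4000B scanner. Polyhistidine- and DsRed-tagged transcription factors (N-terminal fusions) from E. coli BL21-CodonPlus were purified on Ni–NTA and applied at 200 nM for 1 h at 25 °C to a double-stranded, BSA-blocked custom Agilent array in buffer with 50 µM zinc acetate.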
As for “GTAGTGATTGTTAGTAAGCATTCGATATATTACGCCCAAGCGGAGTCACCTAGTGCAG”, the binding signal was 17200 fluorescence intensity (a.u.). For “GGCAAATTTGTAACTCTTCGGACATGAATATAAATGTGCACGGAGTCACCTAGTGCAG”, the binding signal is 11800 fluorescence intensity (a.u.). For “GCCAATTACGAAGTTTGTTACATCGACATGAAGGATGTCGCGGAGTCACCTAGTGCAG” the value was 3470 fluorescence intensity (a.u.); for “TTTAAATTTAATTTATAAGCATATGTATAAGCGGAACAACCGGAGTCACCTAGTGCAG”, 32000 fluorescence intensity (a.u.).

As for “CGACATGTCATTAATTACTAAGACATTCTTGGCAACCAAGCGGAGTCACCTAGTGCAG”, the binding signal is 6050 fluorescence intensity (a.u.). The result for “ATGCTGCTAGATTGAGAGAGCAAACAAAATAATAACCCCACGGAGTCACCTAGTGCAG” reads 8900 fluorescence intensity (a.u.); that for “ACTCAATTAATTATATGCCAACAACTTTCTTGTTTTATGTCGGAGTCACCTAGTGCAG”, 27400 fluorescence intensity (a.u.). For “ACAACTAATTTAATCGCTAGAGCGCATTTTACTCCTAGATCGGAGTCACCTAGTGCAG” the value was 15500 fluorescence intensity (a.u.); for “CATGCACGCAATCGATTGATTAAACGAGAATTAGCAACGCCGGAGTCACCTAGTGCAG”, 9420 fluorescence intensity (a.u.). Turning to “ACGATCAAATTTAGACATGGAAACTCGTGACTGTGCTTATCGGAGTCACCTAGTGCAG”, the binding signal is 6550 fluorescence intensity (a.u.).

For the sequence “GCTAATAGCGCAATTTAGCCGGCAATAGCCGCTAAACTGGCGGAGTCACCTAGTGCAG”, the binding signal was 3690 fluorescence intensity (a.u.). As for “CTGATTGATTAATTTTGTACCGAATGATCAATCATTCGATCGGAGTCACCTAGTGCAG”, the binding signal is 47700 fluorescence intensity (a.u.).

Regarding “AAAACGACGCTATATAATTGACAATCTGAAGGCAACCTCTCGGAGTCACCTAGTGCAG”, the binding signal was 13000 fluorescence intensity (a.u.). The result for “GAAAAGAAAAGATAATTGAGCCCATTTCCAATAACACTATCGGAGTCACCTAGTGCAG” reads 3650 fluorescence intensity (a.u.); that for “CGAAAGACAATTGGATTAATTGGGGATATATAGTACACTACGGAGTCACCTAGTGCAG”, 17800 fluorescence intensity (a.u.); that for “GCAAATTAGGTAGTTCATGCAAATGCTTCCATGCCTTCGTCGGAGTCACCTAGTGCAG”, 3790 fluorescence intensity (a.u.). As for “TTTTGTGATTTAGGCGACCAGAAATCAGTTAATACTCGGTCGGAGTCACCTAGTGCAG”, the binding signal is 7520 fluorescence intensity (a.u.). Regarding “CGTGCTTAATTTAGTTCCGTGGAATTGACCACGAAATCACCGGAGTCACCTAGTGCAG”, the binding signal is 8120 fluorescence intensity (a.u.). For “GTGACAGGCTAGTTTATAATAGATATTTTGATATTAACTCCGGAGTCACCTAGTGCAG”, the binding signal is 3540 fluorescence intensity (a.u.). Regarding “AATTAATTAATTCATTAACTAGATGCATGATGCTAGCATACGGAGTCACCTAGTGCAG”, the binding signal was 40200 fluorescence intensity (a.u.). Regarding “ATCAAATCATATGTTAGATTGATCCTTCAATTAGTTAATTCGGAGTCACCTAGTGCAG”, the binding signal was 24400 fluorescence intensity (a.u.). The result for “TTTTAACTGTGATTCTTTAAACTCAGTTAGAAGTTACTGGCGGAGTCACCTAGTGCAG” reads 10200 fluorescence intensity (a.u.). The result for “CTTTTGATTTGGAGCAGTATAAACAGCCGTAGAGGTGGCACGGAGTCACCTAGTGCAG” reads 17900 fluorescence intensity (a.u.); that for “CAGTGTGATTTAAGAATTTTCAACTGTAAAAGAATAGGAGCGGAGTCACCTAGTGCAG”, 10000 fluorescence intensity (a.u.).

Take “ACTGATTGACGTTTCTCATAACTAAAATATAGGTATTGTGCGGAGTCACCTAGTGCAG”: the binding signal is 60900 fluorescence intensity (a.u.). For “CCTTAATAGAGGATTTCCAAAATATGTGAGTGATTTGTTGCGGAGTCACCTAGTGCAG” the value was 21300 fluorescence intensity (a.u.). As to “TGCTCAATCACACACACACACGCGTGTAATATTAAGATTTCGGAGTCACCTAGTGCAG”, the binding signal is 10500 fluorescence intensity (a.u.). On to “GTGATAAATTATTTCACAAATATGCAAGGTCAAATTTAACCGGAGTCACCTAGTGCAG”, for which the binding signal is 11900 fluorescence intensity (a.u.). The result for “GCCCCTTCGTCAATTTGTAATGTATTTTGTACAGTAGGACCGGAGTCACCTAGTGCAG” reads 5220 fluorescence intensity (a.u.); that for “AGAACTAGTGATTAGCGGCTGCATGCAAGCATTTAGTTGGCGGAGTCACCTAGTGCAG”, 6820 fluorescence intensity (a.u.); that for “ATTTATACCTAAATTAACAAATCATCAATATACATCATTGCGGAGTCACCTAGTGCAG”, 10200 fluorescence intensity (a.u.). For “AATAATTTGACAATTGAGCAGAAATGCCGACCATGGGAAGCGGAGTCACCTAGTGCAG” the value was 29900 fluorescence intensity (a.u.); for “TTCCCGATAATTGAACTGTAGCATTATAAAAGGGCATCAGCGGAGTCACCTAGTGCAG”, 31500 fluorescence intensity (a.u.). The result for “TTGATTTGACGCGCGCGATTTCTTCGTGCCATTTGCGACGCGGAGTCACCTAGTGCAG” reads 14000 fluorescence intensity (a.u.).

In the case of “TTTAGATTTATAGTATTAAAATATGTTATCTTTTATCAGGCGGAGTCACCTAGTGCAG”, the binding signal was 9030 fluorescence intensity (a.u.). Turning to “TATAATTGATCTTTGTAGTTATTTTGTTGCATACATAAGACGGAGTCACCTAGTGCAG”, the binding signal was 29100 fluorescence intensity (a.u.). For “CTTAATTATGCTCAAAAGATTCGTCTTATGGTTTCCAAGCCGGAGTCACCTAGTGCAG” the value was 32500 fluorescence intensity (a.u.). As for “ATTTTGATTAAATGGTGATCAGCCAAAGCATTTGCCATCCCGGAGTCACCTAGTGCAG”, the binding signal is 39300 fluorescence intensity (a.u.).

“TTTGATGAAAAGTGATGCGTAGCACTATTTATTTTCGGAGCGGAGTCACCTAGTGCAG”: the binding signal is 3920 fluorescence intensity (a.u.). For “TATTAAACTTTAATTAAATTAGAGTGACTTCTTCAATAAACGGAGTCACCTAGTGCAG”, the binding signal is 8700 fluorescence intensity (a.u.). For “AATAAATTGTGACAGCTGTGGGATTTGAACCCACGCCCTTCGGAGTCACCTAGTGCAG”, the binding signal is 25700 fluorescence intensity (a.u.). On to “AAGAGATTGGAATCGGGCGTACCGGAGAACTTTGGAGATGCGGAGTCACCTAGTGCAG”, for which the binding signal is 12100 fluorescence intensity (a.u.).
